{
  "source": "PubChem BioAssay AID1461",
  "about": "(National Center for Advancing Translational Sciences (NCATS), 2008)",
  "note": "Out of some 220,000 compounds screened, about 2,300 (1%) were called active. This list was built around the results that the source calls inconclusive (neither active nor inactive); the mix of calls is not that of the screen. Calls follow the shape of the dose curve; as a rule, active = well fitted inhibition curve with a large enough effect; inconclusive = small, poorly fitted or top-dose-only effect, or effect the other way; inactive = no such curve, though single readings can be large or run the other way. Potencies beside an inconclusive call are fits to weak or partial responses and may not hold up. % is scaled to controls: 0 for no effect and ±100 for the full control effect; potency is read from the fitted curve at half-maximal effect; tags tell the direction and shape of the fitted curve.",
  "data": [
    {"molecular_target": "Neuropeptide S receptor (Homo sapiens) (UniProt Q6W5P4)", "sequence (Q6W5P4 whole entry, looked up)": "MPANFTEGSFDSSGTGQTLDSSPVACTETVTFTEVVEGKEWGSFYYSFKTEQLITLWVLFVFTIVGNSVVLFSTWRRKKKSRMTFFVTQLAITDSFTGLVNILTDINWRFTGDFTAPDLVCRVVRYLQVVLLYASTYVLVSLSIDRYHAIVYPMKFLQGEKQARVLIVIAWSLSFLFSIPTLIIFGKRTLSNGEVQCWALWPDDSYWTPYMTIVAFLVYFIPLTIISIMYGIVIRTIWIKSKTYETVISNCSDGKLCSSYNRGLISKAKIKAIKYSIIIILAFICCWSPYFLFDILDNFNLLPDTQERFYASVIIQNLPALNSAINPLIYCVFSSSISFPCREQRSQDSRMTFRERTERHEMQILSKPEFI", "experiment": "qHTS Assay for Antagonists of the Neuropeptide S Receptor: cAMP Signal Transduction; also: nearly all actives have a fitted effect of over 50% in size", "conditions": "CHO-NPSR cells, cAMP TR-FRET, antagonist mode; activity change, negative = inhibition: at 38.3 µM (top of the series) unless noted", "values": [
      {"smiles": "CC1CCCN(C(=O)c2cc3c(-c4ccc(Cl)cc4)nn(C)c3s2)C1", "note": "(configuration not stated)", "Potency": "inconclusive: 12.6 µM [inhibitor, partial curve]"},
      {"smiles": "COc1ccc(/C=N/Nc2snc(SC)c2C#N)cc1OC", "Potency": "inconclusive: 10 µM [inhibitor, single point]"},
      {"smiles": "O=C(O)c1ccc2nc(CO)[nH]c2c1", "Potency": "inconclusive: 25.1 µM [inhibitor, single point]"},
      {"smiles": "Cc1ccsc1C1C2=C(CC(C)(C)CC2=O)Nc2ncnn21", "note": "(configuration not stated)", "activity change, negative = inhibition": "inactive: -13.1% [at 46.1 µM]"},
      {"smiles": "Cc1cc(C)cc(C(=O)NC(=S)Nc2ccc3c(c2)OCCO3)c1", "activity change, negative = inhibition": "inactive: 4.21% [at 46.1 µM]"},
      {"smiles": "CCOC(=O)/C(=C\\c1cccc(O)c1)c1nc2sc(C)c(C)c2c(=O)[nH]1", "Potency": "active: 10 µM"},
      {"smiles": "Cc1ccc2[nH]c(C(=O)O)c(NC(=O)CN3CCN(c4cccc(C)c4C)CC3)c2c1", "Potency": "inconclusive: 12.6 µM [inhibitor, partial curve]"},
      {"smiles": "CCC(C(=O)N1CC2(C)CC1CC(C)(C)C2)N1C(=O)c2ccccc2C1=O", "note": "(configuration not stated)", "Potency": "inconclusive: 12.6 µM [inhibitor, single point]"},
      {"smiles": "COC1=NS(=O)(=O)c2ccccc21", "activity change, negative = inhibition": "inactive: 11.1%"},
      {"smiles": "Cc1ccc2[nH]c(=O)c(CN(Cc3cccs3)Cc3nnnn3CC3CCCO3)cc2c1", "note": "(configuration not stated)", "Potency": "inconclusive: 3.16 µM [inhibitor, full curve, poor fit]"},
      {"smiles": "CCn1cc(C(C)NC(=O)COc2ccc(Cl)cc2C)c(C)n1", "note": "(configuration not stated)", "activity change, negative = inhibition": "inactive: -4.15% [at 46.1 µM]"},
      {"smiles": "C[C@@H](NC(=O)c1nc[nH]c1C(=O)N[C@@H](CCCCNC(=O)OC(C)(C)C)C(=O)OC(C)(C)C)c1ccccc1", "Potency": "inconclusive: 7.94 µM [activator, partial curve]"},
      {"smiles": "O=C(ON=C1CCN(S(=O)(=O)c2ccccc2)CC1)c1cccc(Cl)c1", "activity change, negative = inhibition": "inactive: -9.56% [at 46.1 µM]"},
      {"smiles": "CCN(CC)C(=O)CC(c1ccc(F)cc1)c1ccc(OC(C)C)cc1", "note": "(configuration not stated)", "Potency": "inconclusive: 12.6 µM [inhibitor, single point]"},
      {"smiles": "C=CCn1c(CSCc2ccc(Cl)cc2)nnc1SCC(=O)NCc1ccccc1", "Potency": "inconclusive: 12.6 µM [inhibitor, single point]"},
      {"smiles": "COc1ccc2nc(Sc3c([N+](=O)[O-])nc(C)n3Cc3ccccc3)[nH]c2c1", "activity change, negative = inhibition": "inactive: -25.9% [at 46.1 µM]"},
      {"smiles": "Cc1cc(C)n2nc(SCN3C(=O)c4ccccc4C3=O)nc2n1", "activity change, negative = inhibition": "inactive: -6.73% [at 46.1 µM]"},
      {"smiles": "O=C(NN=C1C2CC3CC(C2)CC1C3)c1cccs1", "activity change, negative = inhibition": "inactive: 17.7% [at 46.1 µM]"},
      {"smiles": "CCC/C(=N/NC(=O)c1cccc(Cl)c1)c1ccccc1", "activity change, negative = inhibition": "inactive: -12.1%"},
      {"smiles": "N=c1c2c(-c3ccccc3)c(-c3ccccc3)n(Cc3ccco3)c2ncn1CCCN1CCOCC1", "Potency": "inconclusive: 10 µM [inhibitor, single point]"},
      {"smiles": "O=C(NCc1ccc(Cl)cc1)c1cc2c(nc3sccn32)s1", "Potency": "inconclusive: 25.1 µM [activator, single point]"},
      {"smiles": "Cc1ccc(S(=O)(=O)c2c(C)cc(C)nc2N2CCCCC2)cc1", "Potency": "inconclusive: 12.6 µM [inhibitor, single point]"},
      {"smiles": "Cc1nn(CCc2nn[nH]n2)c2nc(-c3ccc(C4CCCCC4)cc3)cc(C(F)(F)F)c12", "Potency": "active: 12.6 µM"},
      {"smiles": "CCOC(=O)C1CCCN(C(=O)CN(c2ccc(OC)cc2)S(=O)(=O)c2c(C)noc2C)C1", "note": "(configuration not stated)", "Potency": "inconclusive: 25.1 µM [inhibitor, single point]"},
      {"smiles": "COCCCC/C(=N\\OCCN)c1ccc(C(F)(F)F)cc1", "Potency": "inconclusive: 25.1 µM [inhibitor, single point]"},
      {"smiles": "CCOc1cccc(C(=O)N2CCCCC2c2cccnc2)c1", "note": "(configuration not stated)", "activity change, negative = inhibition": "inconclusive: 47.1% [activator] [at 46.1 µM]"},
      {"smiles": "COc1ccc(OCc2n(CC(=O)OC3CC(C)CCC3C(C)C)c3ccccc3[n+]2C)cc1", "note": "(configuration not stated)", "Potency": "active: 10 µM"},
      {"smiles": "Cn1nc(-c2ccc(Cl)cc2)c2cc(C(=O)N3CCN(c4ccccn4)CC3)sc21", "Potency": "inconclusive: 3.16 µM [inhibitor, partial curve, poor fit]"},
      {"smiles": "COc1cccc(-c2nn(-c3ccccc3)cc2CN(C)C(C)c2ccon2)c1", "note": "(configuration not stated)", "Potency": "inconclusive: 10 µM [activator, partial curve]"},
      {"smiles": "COc1ccc2c(c1)-c1nc(NC(=O)c3cccs3)sc1CC2", "Potency": "inconclusive: 3.16 µM [inhibitor, single point]"},
      {"smiles": "COc1ccc(Oc2nccc(-c3ccccc3)c2C#N)cc1", "activity change, negative = inhibition": "inactive: -19.1% [at 46.1 µM]"},
      {"smiles": "COc1ccc(C/C(C)=N/NC(=O)c2ccc(Cl)cc2)cc1", "activity change, negative = inhibition": "inactive: -1.6%"},
      {"smiles": "COC(=O)Cc1cc(=O)n2[nH]c(C(F)(F)F)nc2n1", "activity change, negative = inhibition": "inactive: -2% [at 46.1 µM]"},
      {"smiles": "Cc1cc(C)nc(N2CCCC(C(=O)NNC(=O)c3ccncc3)C2)n1", "note": "(configuration not stated)", "activity change, negative = inhibition": "inactive: 12.7%"},
      {"smiles": "COc1ccccc1-c1nnc2sc(COc3ccc(Cl)cc3Cl)nn12", "Potency": "inconclusive: 10 µM [inhibitor, partial curve]"},
      {"smiles": "CCN(C1CCCCC1)S(=O)(=O)c1ccc(C(=O)O)cc1", "Potency": "inconclusive: 0.631 µM [inhibitor, partial curve, poor fit]"},
      {"smiles": "Cc1c(O)ccc(/C=N/Nc2nc(-c3cccnc3)nc3ccccc23)c1O", "Potency": "inconclusive: 10 µM [activator, partial curve]"},
      {"smiles": "O=c1[nH]c(CSc2cccc[n+]2[O-])nc2ccccc12", "Potency": "inconclusive: 25.1 µM [activator, single point]"},
      {"smiles": "O=C(O)CCSc1nc2ccccc2s1", "activity change, negative = inhibition": "inactive: -10.6% [at 46.1 µM]"},
      {"smiles": "Cc1ccc(C2CC(C(F)(F)F)n3nc(C(=O)NCc4c(C)nn(C)c4C)c(Cl)c3N2)cc1", "note": "(configuration not stated)", "Potency": "inconclusive: 10 µM [inhibitor, single point]"},
      {"smiles": "CC1=CC(C)(C)N(S(=O)(=O)c2ccc(C)cc2)c2ccccc21", "Potency": "inconclusive: 20 µM [activator, single point]"},
      {"smiles": "Cc1ccc(Nc2nc3ccccc3[nH]2)nc1", "activity change, negative = inhibition": "inactive: -4.01% [at 46.1 µM]"},
      {"smiles": "CC(=O)c1cccc(NC(=O)CCS(=O)(=O)c2cccc3nsnc23)c1", "activity change, negative = inhibition": "inactive: -8.99% [at 46.1 µM]"},
      {"smiles": "CC(=O)Nc1ccc(NS(=O)(=O)c2ccc(Cl)s2)cc1", "activity change, negative = inhibition": "inactive: -2.85%"},
      {"smiles": "O=C(NCc1cccnc1)C(=O)NCC1OCCN1S(=O)(=O)c1ccc(F)cc1", "note": "(configuration not stated)", "activity change, negative = inhibition": "inactive: 10.5%"},
      {"smiles": "CCOC(=O)c1c(NC(=O)CC(C)C)sc(C(C)=O)c1C", "Potency": "inconclusive: 12.6 µM [inhibitor, single point]"},
      {"smiles": "N#Cc1nc(-c2ccc(F)cc2)oc1N1CCCC1", "Potency": "inconclusive: 12.6 µM [inhibitor, partial curve]"},
      {"smiles": "COc1ccc(Cn2nnnc2C(c2ccc(C)cc2)N2CCN(C3CCCC3)CC2)cc1", "note": "(configuration not stated)", "Potency": "inconclusive: 12.6 µM [inhibitor, single point]"},
      {"smiles": "COc1ccccc1N1C(=O)CC(Sc2n[nH]c(-c3cccc(C)c3)n2)C1=O", "note": "(configuration not stated)", "Potency": "inconclusive: 25.1 µM [inhibitor, single point]"},
      {"smiles": "COc1cccc(C(C(=O)NC2CCCCC2)N(CC2CCCO2)C(=O)CNC(=O)c2ccco2)c1", "note": "(configuration not stated)", "activity change, negative = inhibition": "inactive: -8.76% [at 46.1 µM]"},
      {"smiles": "C=CCSC(=C(C#N)C#N)c1cc2c([nH]1)CCCC2", "Potency": "active: 12.6 µM"},
      {"smiles": "O=C(Nc1ccccc1-c1nc2ccccc2[nH]1)c1ccc(S(=O)(=O)N2CCCCC2)cc1", "Potency": "inconclusive: 10 µM [inhibitor, partial curve]"},
      {"smiles": "CCN(CC)S(=O)(=O)c1ccc(C(=O)NC2=C(C(=O)OC)SCC2)cc1", "Potency": "inconclusive: 12.6 µM [inhibitor, partial curve]"},
      {"smiles": "COc1cc(OC)cc(-c2nnc(SCC(=O)N3CCCc4ccccc43)o2)c1", "Potency": "inconclusive: 10 µM [inhibitor, partial curve, poor fit]"},
      {"smiles": "CC(Sc1nnc(Cc2cccs2)n1C1CCCCC1)C(=O)N1CCc2ccccc21", "note": "(configuration not stated)", "Potency": "inconclusive: 20 µM [inhibitor, partial curve, poor fit]"},
      {"smiles": "COC(=O)c1c(NC(=O)CSc2ncnc3c2cnn3-c2ccccc2Cl)sc2c1CCCC2", "activity change, negative = inhibition": "inactive: -19.9% [at 46.1 µM]"},
      {"smiles": "COc1ccc(N2CCN(C(CNS(=O)(=O)c3cc(F)ccc3F)c3cccnc3)CC2)cc1", "note": "(configuration not stated)", "Potency": "inconclusive: 5.01 µM [inhibitor, single point]"},
      {"smiles": "CCN(CCNC(=O)c1ccc(CSc2nc3ccncc3[nH]2)cc1)c1ccccc1", "activity change, negative = inhibition": "inactive: -56%"},
      {"smiles": "CCCc1cc(C(=O)N(C2CCCCC2)C2CCCCC2)no1", "Potency": "inconclusive: 10 µM [inhibitor, single point]"},
      {"smiles": "O=C(COC(=O)c1cnccn1)c1ccc(OC(=O)c2ccccc2)cc1", "activity change, negative = inhibition": "inactive: -5.91% [at 46.1 µM]"},
      {"smiles": "Cc1cc(C(=O)NCc2ccc(S(N)(=O)=O)cc2)c(C)o1", "Potency": "inconclusive: 12.6 µM [inhibitor, partial curve, poor fit]"},
      {"smiles": "Cc1ccc(C)c(N2CCN(C(=O)CC3Sc4ccccc4NC3=O)CC2)c1", "note": "(configuration not stated)", "Potency": "inconclusive: 7.94 µM [inhibitor, partial curve]"},
      {"smiles": "N#Cc1c(-c2ccccc2)nc(SCC(=O)N2c3ccccc3Sc3ccccc32)[nH]c1=O", "Potency": "inconclusive: 12.6 µM [inhibitor, single point]"},
      {"smiles": "CCN(CC)S(=O)(=O)c1ccc(N/N=C/c2ccccc2OCC(=O)O)c([N+](=O)[O-])c1", "activity change, negative = inhibition": "inactive: -14%"},
      {"smiles": "COc1ccc(-c2ccc(C#N)c(SCC(=O)NCCc3ccccc3)n2)cc1OC", "Potency": "inconclusive: 10 µM [inhibitor, single point]"},
      {"smiles": "Cn1c(=O)c(NC2CCCCC2)c2c3c(cccc31)C(=O)c1ccccc1-2", "Potency": "inconclusive: 10 µM [activator, partial curve]"},
      {"smiles": "Cc1n[nH]c(C)c1S(=O)(=O)N1CCCC(C(=O)NCC2COc3ccccc3O2)C1", "note": "(configuration not stated)", "Potency": "inconclusive: 15.8 µM [inhibitor, partial curve]"},
      {"smiles": "CCN1C(=O)CC(C(=O)Nc2ccc(F)cc2)SC1=Nc1cccc(OC)c1", "note": "(configuration not stated)", "activity change, negative = inhibition": "inactive: -20.7% [at 46.1 µM]"},
      {"smiles": "CCCn1nc([N+](=O)[O-])c(C(C#N)c2nc3ccccc3s2)c(Cl)c1=O", "note": "(configuration not stated)", "Potency": "active: 10 µM"},
      {"smiles": "O=C(N/N=C/c1ccncc1)c1ccc(NC(=O)c2cccc(Cl)c2)cc1", "activity change, negative = inhibition": "inactive: 1.58%"},
      {"smiles": "COc1ccc(C)cc1N(CC(=O)Nc1cccnc1)S(=O)(=O)c1ccccc1", "activity change, negative = inhibition": "inactive: 20.7%"},
      {"smiles": "CCN1C(=O)C2C(c3ccc(O)c(OC)c3)NC(C)(C(=O)OC)C2C1=O", "note": "(configuration not stated)", "activity change, negative = inhibition": "inactive: 2.41% [at 7.67 µM]"}
    ]}
  ]
}
